# Reference: paper PMC6919601, “Identification of Plasmodium dipeptidyl aminopeptidase allosteric inhibitors by high throughput screening” (PLoS ONE, 2019)
# The whole screen tested about 110,000 compounds, of which about 230 (0.21%) showed an effect of 50% or more. Some of the results follow.
# Target: DPAP1 (Plasmodium falciparum, UniProt Q8IIJ9)
# Test: primary screen, percent inhibition; read by cleavage of a fluorogenic dipeptide substrate; higher = more effect of the substance
# Design: species or system P. falciparum D10 trophozoite lysates; single well
# 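Also: 30 min substrate incubation versus DMSO and 10 µM JCP410 controls.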
# DPAP1, sequence (Q8IIJ9 whole entry, looked up): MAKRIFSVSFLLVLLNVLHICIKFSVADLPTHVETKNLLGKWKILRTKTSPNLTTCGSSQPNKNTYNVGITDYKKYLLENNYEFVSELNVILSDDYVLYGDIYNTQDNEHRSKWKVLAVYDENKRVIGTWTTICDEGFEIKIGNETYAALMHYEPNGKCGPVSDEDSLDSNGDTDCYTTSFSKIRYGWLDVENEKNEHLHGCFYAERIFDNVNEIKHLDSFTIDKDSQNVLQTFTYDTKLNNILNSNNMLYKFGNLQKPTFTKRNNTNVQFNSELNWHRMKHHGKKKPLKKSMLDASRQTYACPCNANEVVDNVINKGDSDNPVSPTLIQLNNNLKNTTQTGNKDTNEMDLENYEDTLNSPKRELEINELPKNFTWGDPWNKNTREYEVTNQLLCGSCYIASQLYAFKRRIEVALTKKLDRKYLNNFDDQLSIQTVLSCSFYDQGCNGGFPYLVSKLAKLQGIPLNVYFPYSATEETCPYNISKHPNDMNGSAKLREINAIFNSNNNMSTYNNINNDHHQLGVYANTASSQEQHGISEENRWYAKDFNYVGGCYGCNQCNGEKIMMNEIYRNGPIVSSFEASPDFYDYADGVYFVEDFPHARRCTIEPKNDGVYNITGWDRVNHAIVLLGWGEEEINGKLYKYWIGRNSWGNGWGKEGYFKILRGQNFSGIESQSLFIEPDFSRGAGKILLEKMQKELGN
row,SMILES,% Inhibition @ 10 uM [%]
1,CC(C)(C)NC(=O)C(=O)NCc1cccnc1,-1.6
2,Cc1ccc2c(cnn2C(=O)CCC(=O)NC(C)c2ccccc2)c1 (centres unmarked),-8.57
3,CCOC(=O)c1c(NC(=O)c2cc(-c3ccccc3OC)on2)sc2c1CCCC2,-3.44
4,Cn1c2ccccc2c2nnc(SCC(=O)NC3=NN=C(c4ccccc4)CS3)nc21,-2.4
5,S=C(c1ccc(-c2ccc(Cl)cc2Cl)o1)N1CCCCC1,-1.29
6,COc1cc2c(cc1OC)C(C(=O)O)C(c1cn(C)c3ccccc13)N(C)C2=O (centres unmarked),0.974
7,O=C1CC(c2ccc3c(c2)OCO3)C2=C(CCCC2=O)N1 (centres unmarked),1.16
8,Cc1ccccc1C1CC(c2ccc(Br)cc2)Nc2nnnn21 (centres unmarked),0.0842
9,C1CCCC(NCC2CCCO2)CC1 (centres unmarked),1.36
10,O=C1C=C(N2CCCC2)C(=O)N1c1ccc(Cl)cc1,-4.67
11,COCCNC(=O)c1c(NC(=O)c2ccccc2C)sc2c1CCCC2,0.83
12,Cc1ccc(OCCSc2nnc3n(C)c4ccccc4n23)cc1,-3.74
13,Cc1cc(=O)n2ncn(Cc3ccccc3)c2n1,1.26
14,COc1cnn(-c2ccccc2)c(=O)c1OC,-1.84
15,C=CCc1ccccc1OCc1nc2ccccc2n1C,-1.15
16,Cc1cccc(-c2nc3n(n2)C(c2ccc(O)cc2)C2=C(O)CC(C)(C)CC2=N3)c1 (centres unmarked),3.59
17,CNC(=O)CCCn1nc(C)c2c(C)n(-c3ccc(C)cc3)nc2c1=O,3.99
18,O=C(Nc1cnn(Cc2c(Cl)cccc2Cl)c1)c1ccc2c(c1)OCO2,-1.04
19,Cc1ccccc1Cn1c(=O)c2c(ncn2Cc2ccccc2)n(C)c1=O,1.86
20,O=C(NCc1ccc2c(c1)OCO2)c1cncc(NS(=O)(=O)c2ccc(Cl)cc2)c1,-6.04
21,COc1ccc(C(=O)O)cc1S(=O)(=O)NCc1cccnc1,-7.33
22,CCOc1ccc(C2NC(=O)c3[nH]nc(C)c32)cc1 (centres unmarked),-13.4

row,SMILES,% Inhibition @ 10 uM [%]
1,CCOc1ccc(S(=O)(=O)N2CCN(c3cccc(Cl)c3)CC2)c2ccccc12,0.528
2,O=c1oc2ccc(NS(=O)(=O)c3ccc(Cl)cc3)cc2s1,-2.86
3,CCC(C)NC(=O)C1CCCN(S(=O)(=O)N2CCOCC2)C1 (centres unmarked),-0.517
4,O=C(Cn1nnc2sc3c(c2c1=O)CCCC3)NCc1ccccc1,-3.21
5,O=c1c(Cl)c(NCCc2ccc(Cl)cc2)cnn1C12CC3CC(CC(C3)C1)C2,-4.66
6,COc1cc(OC)cc(C(=O)Nc2sc3c(c2C#N)CCCCC3)c1,-4.41
7,CC1=Nc2cc([N+](=O)[O-])ccc2NC(=O)C1,-3.13
8,CC(=O)c1cccc(NC(=O)CC2S/C(=N\c3ccc(Cl)c(Cl)c3)N(C)C2=O)c1 (centres unmarked),-5.67
9,CCCCNC(=O)Cn1ncc2c1-c1ccccc1OC2,-1.88
10,Cc1ccc(C(=O)NCc2ccc(Cl)cc2)o1,1.88
11,CCOc1ccc(CNC(=O)CCCN2C(=O)C(c3ccccc3)Oc3cccnc32)cc1 (centres unmarked),-0.397
12,CCn1cc(/C=C/C(=O)c2ccc(O)cc2)c(C)n1,1.31
13,Cn1c(N)c(C(c2ccccc2)c2c(N)n(C)c(=O)n(C)c2=O)c(=O)n(C)c1=O,-1.2
14,c1ccc(Cn2ncc3c(Nc4ccccc4)ncnc32)cc1,1.35
15,CC(C)=CCCC(C)CN(CC(C)O)CC(C)O (centres unmarked),-0.603
16,CCC/C(=N\c1ccccc1OC)C1=C(O)CC(c2ccccc2)CC1=O (centres unmarked),2.36
17,CC(=O)NS(=O)(=O)c1ccc(NC(=O)C2c3ccccc3Oc3ccccc32)cc1,3.46
18,CCOC(=O)/C(C#N)=C(\C)c1ccc(Cl)cc1Cl,-0.999
19,CCCC1CCC(C2=N/C(=C\c3ccccc3OC)C(=O)O2)CC1 (centres unmarked),1.97
20,Cc1ccc(CN2CCC(Cc3ccccc3)CC2)o1,-5.42
21,COC(=O)c1ccc(Oc2c(F)c(F)nc(F)c2F)cc1,-3.41
22,CN(CC1COc2ccccc2O1)S(=O)(=O)c1ccc(-c2cc(C(F)(F)F)no2)s1 (centres unmarked),-3.42

row,SMILES,% Inhibition @ 10 uM [%]
1,CCOc1ccc(-c2csc3nc(-c4ccc(F)cc4)oc(=O)c23)cc1,-3.28
2,N#CCc1ccc(NC(=O)c2ccccc2)cc1,2.49
3,CC(C)Oc1ccc(CNCCC(c2ccccc2)c2ccco2)cc1 (centres unmarked),-3.28
4,Cc1cc(C)nc(NC(=O)NS(=O)(=O)N(Cc2ccccc2)c2ccccn2)n1,-6.52
5,CC1(C)CC(=O)C(/C=N/c2ccc(/N=C/C3=C(O)CC(C)(C)CC3=O)c(O)c2)=C(O)C1,-1.37
6,CCCCOc1ccc(N2C(=O)CC(N3CCSCC3)C2=O)cc1 (centres unmarked),0.983
7,CCCNS(=O)(=O)c1c(C(=O)OCC)c(C)n(C)c1C,1.84
8,CCN(CC)CCNC(=O)c1cc(O)nc2ccc(Br)cc12,1.62
9,CC(=O)Nc1cc2nc3[nH]c(=O)[nH]c(=O)c3nc2cc1C,4.26
10,COc1ccc(N2CCN(C(=O)c3oc4ccc(C)cc4c3C)CC2)cc1,-5.6
11,Cc1nc2c(c(C)nn2C(C)(C)C)c(C)c1CCC(=O)NCc1cccnc1,-6.09
12,CCOC(=O)N1CCN(C(=S)Nc2ccc3nccnc3c2)CC1,1.4
13,CCc1ccc(C2=CC(c3cccc(OC)c3)n3ncnc3N2)cc1 (centres unmarked),-5.19
14,CC(C)(C)OC(=O)N1CCC(c2c(C(=O)NC3CCCC3)cnn2-c2ccccc2Cl)CC1,-8.37
15,CCN1CCN(c2oc(COc3ccccc3)nc2C#N)CC1,-4.62
16,Cc1nn(C)cc1/C=C1/CC2C3CC=C4CC(O)CCC4(C)C3CCC2(C)C1=O (centres unmarked),3.94
17,CCOc1ccc(NC(=O)c2ccc(C)c(C)c2)cc1,2.22
18,O=C(NCc1ccccn1)NCc1noc2ccccc12,-1.11
19,CCc1cc2c(=O)c(-c3nc4ccccc4[nH]3)coc2cc1O,0.00784
20,Cc1ccccc1CNC(=O)C(C)n1nc(C)c2sc3ccccc3c2c1=O (centres unmarked),-2.61
21,O=C(COc1ccccc1)Nc1cccc(Cl)c1,-1.97
